Reference: publication PMC9911399, “Two distinct binding modes provide the RNA-binding protein RbFox with extraordinary sequence specificity”
Substitutions are numbered along the chain they refer to; changes in the protein carry UniProt numbers. The list shows a part of the results.

B1: UACCAUG (DNA:RNA)
RNA: GGGAGACCGGAAUUCAGAUUGUCCUACCAUGUUAAAUCCCGUCGUAGCCACCA
DNA 1: CAATCTGAATTCCGGTCTCCC
DNA 2: TGGTGGCTACGACGGGATT
B2: UACCUAG (DNA:RNA)
RNA: B1 RNA with A29U, U30A
DNA 1: CAATCTGAATTCCGGTCTCCC
DNA 2: TGGTGGCTACGACGGGATT
B3: CAAAACU (DNA:RNA)
RNA: B1 RNA with U25C, C27A, C28A, U30C, G31U
DNA 1: CAATCTGAATTCCGGTCTCCC
DNA 2: TGGTGGCTACGACGGGATT
B4: UCCGACC (DNA:RNA)
RNA: B1 RNA with A26C, C28G, U30C, G31C
DNA 1: CAATCTGAATTCCGGTCTCCC
DNA 2: TGGTGGCTACGACGGGATT
B5: UUGCUGA (DNA:RNA)
RNA: B1 RNA with A26U, C27G, A29U, U30G, G31A
DNA 1: CAATCTGAATTCCGGTCTCCC
DNA 2: TGGTGGCTACGACGGGATT
B6: CUUAACU (DNA:RNA)
RNA: B1 RNA with U25C, A26U, C27U, C28A, U30C, G31U
DNA 1: CAATCTGAATTCCGGTCTCCC
DNA 2: TGGTGGCTACGACGGGATT
B7: GCACCUG (DNA:RNA)
RNA: B1 RNA with U25G, A26C, C27A, A29C
DNA 1: CAATCTGAATTCCGGTCTCCC
DNA 2: TGGTGGCTACGACGGGATT
B8: CGGAUUC (DNA:RNA)
RNA: B1 RNA with U25C, A26G, C27G, C28A, A29U, G31C
DNA 1: CAATCTGAATTCCGGTCTCCC
DNA 2: TGGTGGCTACGACGGGATT
B9: AUAAGGC (DNA:RNA)
RNA: GGGAGACCGGAAUUCAGAUUGUCCAUAAGGCUUAAAUCCCGUCGUAGCCACCA
DNA 1: CAATCTGAATTCCGGTCTCCC
DNA 2: TGGTGGCTACGACGGGATT

Target: T1, RBFOX1 RRM RbFoxmut (Fox-RRM*) (Homo sapiens, UniProt Q9NWB1 109-208, R118D;E147R;N151S;E152T)
T1 sequence: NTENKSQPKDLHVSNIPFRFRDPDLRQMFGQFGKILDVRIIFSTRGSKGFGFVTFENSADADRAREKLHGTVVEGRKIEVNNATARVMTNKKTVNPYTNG
Test: EMSA; HiTS-Eq, 1 nM pool, 10 min; buffer printed only for the single-RNA assays: 10 mM Tris pH 7.5, 150 mM NaCl, 3.4 mM EDTA, 0.001% NP-40, 30 C
Conditions: tags: His6 N-terminal (pET28a); label: 5' 32P
Summary of the method: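 These values rest on relative association constants, computed from read-count changes of each RNA species versus the control reaction and normalised to the cognate motif. Reads came from free RNA recovered by 8% native PAGE after purified RbFox RRM (wild type or mutant) at increasing concentrations was equilibrated for 10 min in 50 µL with 1 nM of a 5′-radiolabelled pool with 7 randomized nucleotides and DNA-annealed flanks.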

| Binder | binding signal |
| --- | --- |
| B1 | 0.0835 KA relative to UGCAUGU |
| B2 | 0.11 KA relative to UGCAUGU |
| B3 | 0.0848 KA relative to UGCAUGU |
| B4 | 0.0323 KA relative to UGCAUGU |
| B5 | 0.126 KA relative to UGCAUGU |
| B6 | 0.0937 KA relative to UGCAUGU |
| B7 | 0.112 KA relative to UGCAUGU |
| B8 | 0.117 KA relative to UGCAUGU |
| B9 | 0.0949 KA relative to UGCAUGU |
